From patent publication US20050106730A1, “Compositions and methods utilizing stable reporter cell lines for detection of pathway-specific signal transduction” (priority 1999, published 2005)

System: MAPK pathway converging on Elk1 (GAL4-Elk1 fusion)
Test: Luciferase reporter assay in RCLH-Elk1 stable reporter cells treated with extracellular stimuli
Settings: screening for activators

| SMILES | Activator of MAPK pathways leading to Elk1 activation (luciferase expression, FIG. 10) |
| --- | --- |
| CCCCCCCCCCCCCC(=O)O[C@@H]1[C@@H](C)[C@@]2(O)[C@@H](C=C(CO)C[C@]3(O)C(=O)C(C)=C[C@@H]23)[C@@H]2C(C)(C)[C@]12OC(C)=O [PMA, phorbol 12-myristate 13-acetate] | activators |
| COc1ccc(C[C@H]2NC[C@H](O)[C@H]2OC(C)=O)cc1 [anisomycin] | are not |
